These results are taken from patent US20250381289A1, “EGFR AND C-MET BISPECIFIC BINDING AGENTS, CONJUGATES THEREOF AND METHODS OF USING THE SAME” (GENMAB A/S, priority 2024, published 2025).

Series [1] relates to EBC-1, MKN-45, SNU-5 and NCI-H1975 xenograft models. The series can be described thus: In vivo efficacy of bispecific ADCs (Example 20). More on the design: species or system mice. Conditions: EBC-1, MKN-45, SNU-5, NCI-H1975 xenografts, single i.v. injection of conjugates; FIGS. 12A-12D. The procedure: EBC-1 (EK-Bioscience) tumor model was established by injecting 3×10^6 cells suspended in 0.1 mL PBS. 8 days after tumor inoculation, mice with average tumor size ˜180 mm^3 were selected and assigned into 11 groups using stratified randomization (n=6 per group) based upon their tumor volumes.
MKN-45 (Procell) tumor model was established by injecting 5×10^6 cells suspended in 0.1 mL PBS mixed with Matrigel (1:1). 6 days after tumor inoculation, mice with average tumor size ˜131 mm^3 were selected and assigned into 13 groups using stratified randomization (n=6 per group) based upon their tumor volumes.
SNU-5 (COBIOER) tumor model was established by injecting 5×10^6 cells suspended in 0.1 mL PBS. 8 days after tumor inoculation, mice with average tumor size ˜131 mm^3 were selected and assigned into 13 groups using stratified randomization (n=6 per group) based upon their tumor volumes.
NCI-H1975 (Procell) tumor model was established by injecting 5×10^6 cells suspended in 0.1 mL PBS mixed with Matrigel (1:1). 21 days after tumor inoculation, mice with average tumor size ˜199 mm^3 were selected and assigned into 11 groups using stratified randomization (n=6 per group) based upon their tumor volumes.
The tumor size and body weight were measured as described before. Animal body weight was monitored as an indirect measure of tolerability. […]

Series [2] in a line: PK of bispecific antibodies and their LD038 (8) / LD343 (8) conjugates in rats. The series is classed as in vivo, Sprague Dawley rats. The note with it: rat PK; remark made with the efficacy results of Example 20. The procedure:
Jugular vein blood was sampled from each rat at 10 min, 4 h, 1 d, 3 d, 7 d, 14 d and 21 d post dosing. Total antibody (TAb) concentration of Bsab 6-WT and Bsab 12-WT in plasma was captured by human cMET protein and detected by goat anti-human IgG Fc (HRP), calculated using GraphPad Prism 8.0 software.
Bsab 6-WT, Bsab 67-WT, Bsab 68-WT and Bsab 81-WT were intravenously administered at 3 mg/kg to male Sprague Dawley rats (n=3 per group). Jugular vein blood was sampled from each rat at 10 min, 4 h, 1 d, 3 d, 7 d, 14 d and 21 d post dosing. Total antibody (TAb) concentration of Bsab 6-WT, Bsab 67-WT, Bsab 68-WT and Bsab 81-WT in plasma was captured by human cMET protein and detected by goat anti-human IgG Fc (HRP), calculated using GraphPad Prism 8.0 software.
Bsab 67, Bsab 81, Bsab 67-LD038 (8), Bsab 67-LD343 (8), Bsab 81-LD038 (8) and Bsab 81-LD343 (8) were intravenously administered at 3 mg/kg to male Sprague Dawley rats (n=3 per group). Jugular vein blood was sampled from each rat at 10 min, 4 h, 1 d, 3 d, 7 d, 14 d and 21 d post dosing. Total antibody (TAb) concentration of Bsab 67, Bsab 81, Bsab 67-LD038 (8), Bsab 67-LD343 (8), Bsab 81-LD038 (8) and Bsab 81-LD343 (8) in plasma was captured by human cMET protein and detected by goat anti-human IgG Fc (HRP), calculated using GraphPad Prism 8.0 software.

B1: Bsab 68: EGFR and cMET bispecific antibody; sequences of Bsab 68WT in Table 16 (protein)
chain 1: QVQLVESGGGVVQPGRSLRLSCAASGFTFSTYGMHWVREAPGKDLEWVAVIWDDGSYKYYGDSVKGRFTISRDNSKNTLYLQMNSLRAEDTAVYYCARDGITMVRGVMKDYFDYWGQGTLVTVSSGGGGSGGGGSGGGGSGGGGSAIQLTQSPSSLSASVGDRVTITCRASQDISSALVWYQKKPGKAPKLLIYDASSLESGVPSRFSGSESGTDFTLTISSLQPEDFATYYCQQFNSYPLTFGKGTKVEIKGGGGS[omitted - human IgG1 Fc with changes]
chain 2: QVQLVQSGAEVKKPGASVKVSCKASGYIFTAYTMHWVRQAPGQKLEWMGWIKPNNGLANYAQKFQGRVTMTRDTSISTAYMELSRLRSDDTAVYYCARSEITTEFDYWGQGTLVTVSSGGGGSGGGGSGGGGSGGGGSDIVMTQSPDSLAVSLGERATINCKSSESVDSYANSFLHWYQQKPGQPPKLLIYRASTRESGVPDRFSGSGSGTDFTLTISSLQAEDVAVYYCQQSKEDPLTFGDGTKVEIKGGGGS[omitted - human IgG1 Fc with S354C T366S L368A Y407V (EU numbers)]
B1: in series [1], the anti-tumor activity result was “lesser activity”. For the same molecule, the PK entry in series [2] was “worse PK”.
